The labels stand for the following.
B1: chr1:66461122:66461123:+_ENSMUSG00000015222_ENSMUST00000114013|mus_mus|FALSE|FALSE (ssRNA)
RNA: GGGAGUUCUACAGUCCGACGAUCUGGUGAUGGGAGAGGGACUGUGUACUUGUUGAACACACAGUAUCCCAUGUCUUCAAGUUGACUAUCUGGUUUUACAGUGACUGGGCUUUCAUCAGCGACAGGUGGCAAACUGGUACUACUCAACAGAGGAUUGAGCAUCA
B2: chr6:86333760:86333761:-_ENSG00000135316_ENST00000355238|hu_mus|hu_hu_hu_mus_True|78_108 (ssRNA)
RNA: GGGAGUUCUACAGUCCGACGAUCUUCUUCAAGAAUCUGCUCCUUGGUUUUACUCUUAGGAAUAGAGCCCACAAAAAGCCUAUUGUUGGCAACUGAGAUGCAGACACCAAUGUGCUUCCCGGAACGAAUUUCAUGAUUAUUAUACAACAGAGGAUUGAGCAUCA
B3: 56890833_56890953_4882_3pUTR_ENSMUSG00000055296_ENSMUST00000068792|mouse|control|control (ssRNA)
RNA: GGGAGUUCUACAGUCCGACGAUCUUCUCUUCUUCCCAGGUCAAAUUCUACGCAAACUCUUCAAGGUAAGUUAUGUUAGGGACUAAAAGACUCUUACCACCUCAUGUUAUCUAUUCUCUCUCUGUCCUAGGAAAAUUCCGUAAACAACAGAGGAUUGAGCAUCA
B4: 202742338_202743782_536_CDS_ENSG00000117139_ENST00000367264|human|control|control (ssRNA)
RNA: GGGAGUUCUACAGUCCGACGAUCAAACCCCAUCUUGGUAGCAAUUUUGGUCCAUUUUCUAUCCUUGCAAACAACUGCAAAUCCACCUUCUUCUGCAACUAACUUAUUAAGCUGAAAUAAGUCCAAGAUCUUCCUCUCCACAUGCAACAGAGGAUUGAGCAUCA
B5: chr19:8913615:8913616:-_ENSMUSG00000071658_ENSMUST00000096259|mus_hu|mus_mus_mus_hu_False|38_48 (ssRNA)
RNA: GGGAGUUCUACAGUCCGACGAUCAGGGUACCAAAACCUUCUGCCUGAAAUGGGUGCCCCACCCAGUAGGGAGUUGCAGCUGAAAGUAUCCGUAGCACUGACAGUUACUAUACGAAAGGAGGCCCCUGGGGAGGGCCAGGCCAGCAACAGAGGAUUGAGCAUCA
B6: chr7:65705844:65705845:+_ENSG00000169902_ENST00000304842|hu_mus|hu_hu_hu_mus_False|8_88 (ssRNA)
RNA: GGGAGUUCUACAGUCCGACGAUCAAACGGAUCUUUGUUACAUAAAUAAGGGGCUGGCUCCCCAUGUUUAACAAUGACCUCCAGAAGGAAGGCUUGCAUGGCAGAAUCUAGCACUUCAUCUGUGACACCAGCCUCAUCCAAGCGCAACAGAGGAUUGAGCAUCA
B7: chr12:111929536:111929537:-_ENSMUSG00000021270_ENSMUST00000094361|mus_mus|motif|central (ssRNA)
RNA: GGGAGUUCUACAGUCCGACGAUCUAAGAUGUAAUUUAAGCCAUCUUAAUUUGGUCUCCUAAGGAAUCCAGCUCAACAGCGGAACACUUCAGACCAGAGCAAACAUGAACAGUAGGUUACGUUACGUCUUAUAACAAACGCUCUCAACAGAGGAUUGAGCAUCA
B8: chr1:10037540:10037541:+_ENSMUSG00000056763_ENSMUST00000071087|mus_mus|FALSE|FALSE (ssRNA)
RNA: GGGAGUUCUACAGUCCGACGAUCCUUGGGCUGUUGUUGGCUGCUUGGUGGAAUGUUCUCCUUAGCCAUAGAGAUUAAUAUUUUACUGUUUUCAGAGAGUUUCUCUGACGCCUUUCCCUUCAUCUCCAUGUACGGUGGAUCACUCAACAGAGGAUUGAGCAUCA
B9: chr9:119834795:119834796:+_ENSMUSG00000032512_ENSMUST00000036561|mus_mus|motif|central (ssRNA)
RNA: GGGAGUUCUACAGUCCGACGAUCCAAACAUGAACCACAAUAUAAAUAUCAAACCAACUCACUGUGAGAUCUUUUUACUCGGGUAACAUAAACUUUAGGUAGCAUCUGAAUGAAACUGCAACUUCAGCAUGGCCGUAAGUUCUGCAACAGAGGAUUGAGCAUCA
B10: chr2:20454729:20454730:-_ENSG00000055917_ENST00000338086|hu_mus|FALSE|FALSE (ssRNA)
RNA: GGGAGUUCUACAGUCCGACGAUCAACAUAAUUGCCAUACUGAUCCUGUACCAACUGUUCUGUGUGUUGGUGAAGUUCUUCUAAGAUGGGUAAGGUCUGCUCUGCCGUGCAGUGCUCUAAGAUACGCUGAAUGACUCUGCAGCCCAACAGAGGAUUGAGCAUCA
B11: chr4:106906351:106906352:-_ENSMUSG00000028617_ENSMUST00000030360|mus_hu|FALSE|FALSE (ssRNA)
RNA: GGGAGUUCUACAGUCCGACGAUCGAGCUGGGGGCCAGAGAAAGGUCAACUUGUAUCUACUAAUCAAUAGGAAUUUAACAAGUCCCAGUCUUCCACAGCAAGACAUACAUAUUUCUGCUUUGAAGGUUGUGAAGAGUUAUUCUGCAACAGAGGAUUGAGCAUCA
B12: chr16:46990815:46990816:-_ENSG00000069345_ENST00000563158|hu_hu|FALSE|FALSE (ssRNA)
RNA: GGGAGUUCUACAGUCCGACGAUCUCAAAAUGAAGAUGUAAAGCUUUGUGGUUAGUUUAAAUUAUACACUCUGUAGAUACUAUACCAAUUUUAAAAGUUAUACAUAGACCAACAGAUGUCCCUCAGUUCAUCUGGAUUGAUAAGCAACAGAGGAUUGAGCAUCA
B13: chr8:74858975:74858976:-_ENSG00000154582_ENST00000284811|hu_mus|hu_hu_hu_mus_True|38_88 (ssRNA)
RNA: GGGAGUUCUACAGUCCGACGAUCGACCUUGUAGGUAAAAUACAUGCAUACUUUCGAUAGCACAUGUGAGGGGAUCUCUCUAAAAUUGACCUCGUUGGUUUCGUUCUCAGCAAACUGACCUGGACCACUCAACAUAGCCUUUAUCAACAGAGGAUUGAGCAUCA
B14: chrX:98862621:98862622:+_ENSMUSG00000034160_ENSMUST00000044475|mus_hu|mus_mus_mus_hu_False|48_58 (ssRNA)
RNA: GGGAGUUCUACAGUCCGACGAUCCUGCAUCUCCUUUAGAGUGUUUCCCAUAUUAGAGUAGGCAUCAGCAAAGGUAGGACUAAUUCGUAUGGCUUCUUUAUAAUGCAUCAGAGCUUCCUGCAGUUUUCCCUGCUGCUGCAGUACCAACAGAGGAUUGAGCAUCA

This is one part of the list.

The target in this assay is T1, UNK ZnF1-3 (human, UniProt Q9C0B0 31-174).
T1 sequence: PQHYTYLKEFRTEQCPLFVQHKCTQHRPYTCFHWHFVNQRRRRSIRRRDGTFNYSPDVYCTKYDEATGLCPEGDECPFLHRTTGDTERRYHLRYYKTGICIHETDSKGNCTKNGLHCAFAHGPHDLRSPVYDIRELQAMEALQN
Briefly: nsRBNS (natural sequence RNA bind-n-seq); RBNS binding buffer (assumed for nsRBNS): 25 mM Tris pH 7.5, 150 mM KCl, 3 mM MgCl2, 0.01% Triton X-100, 500 ug/ml BSA, 20 U/ml SUPERase-In, 4 C; UNK is unkempt and MSI1 is Musashi-1; names of the RNAs are library labels; protein concentration not given here; high values mean tight binding.
B1 registered a binding signal of 0.635 enrichment R.

In turn, B2 showed a binding signal of 0.842 enrichment R.

As to B3, the binding signal was found to be 1.01 enrichment R.

For B4, the binding signal amounted to 1.06 enrichment R.

B5: the binding signal was determined as 1.21 enrichment R.

As to B6, the binding signal came out at 0.731 enrichment R.

As for B7, the binding signal is 0.79 enrichment R.

Consider B8, for which the binding signal amounted to 0.405 enrichment R.

B9 showed a binding signal of 1.21 enrichment R.

With B10, the binding signal is 0.857 enrichment R.

The molecule B11 had a binding signal of 2.14 enrichment R.

In turn, B12 returned a binding signal of 0.542 enrichment R.

B13 came in with a binding signal of 0.75 enrichment R.

In turn, B14 returned a binding signal of 1.18 enrichment R.

Source of the values: publication PMC12136788.
